Assay results published in ChEMBL document CHEMBL4888484, “Replenishing the malaria drug discovery pipeline: Screening and hit evaluation of the MMV Hit Generation Library 1 (HGL1) against asexual blood stage Plasmodium falciparum ,using a nano luciferase reporter read-out” (2022).
Hit rate of the full screen: of about 150,000 compounds, about 540 (0.36%) showed an effect of 50% or more. Some of the results follow.

What follows are compounds tested on Plasmodium falciparum (assay: Primary screen in NF54 nanoGlo assay, in single point, at 2uM, 72h; a lower Z score goes with more inhibition). Conditions: timepoint 72 hour.
Assay type: functional, Erythrocyte
For `CCC(C)(CC)c1noc(-c2cccnc2)n1`, the “% Inhibition” value was -5% and the Z score was 0.72. `Cn1nc(C(=O)NC2CCN(Cc3ccccc3)CC2)c2ccccc2c1=O` was tested, and the “% Inhibition” value was 34% and the Z score was -3.81. For `C[C@H]1C(=O)N(C)C[C@H](CO)N1C(=O)Cc1cccc(Cl)c1`, the “% Inhibition” value was -19% and the Z score was 2.31. In the case of `Cc1c(Cl)c(C(F)(F)F)nn1[C@@H](C)C(=O)NC1CCN(C(C)C)CC1`, the “% Inhibition” value is reported as 31% and the Z score is reported as -4.49. In the case of `Cc1cc(NC(=O)c2ccccc2Cl)sc1C(=O)N1CCc2ccccc21`, the “% Inhibition” value is reported as -16% and the Z score is reported as 2.48. `CCc1cc(CNC(=O)N[C@@H](C)COCC(C)C)[nH]n1` was tested, and the “% Inhibition” value was -32% and the Z score was 2.92. For `Cn1cc(C2CC2C(=O)NS(=O)(=O)c2ccc(F)cc2)cn1` (centres undefined), the “% Inhibition” value was -8% and the Z score was 1.47. `N#C[C@@]1(C(=O)N2CCOc3cc(Cl)c(Cl)cc32)CC12CCCC2` was tested, and the “% Inhibition” value was 17% and the Z score was -2.16. `CC(C)CN1CCOc2ccccc2[C@@H]1C(=O)O` was tested, and the “% Inhibition” value was 2% and the Z score was -0.4. In the case of `CO[C@H]1COC[C@@H]1NS(=O)(=O)c1cc(-c2cc(C(F)(F)F)on2)ccc1C`, the “% Inhibition” value is reported as 9% and the Z score is reported as -1.77. With `CN(Cc1ccc2c(c1)OCCO2)c1cccc(CC(=O)O)c1` the “% Inhibition” value was -11% and the Z score was 1.1. With `CCC(=O)Nc1ccc(C)cc1-c1nc2ccccc2n(Cc2ccccc2)c1=O` the “% Inhibition” value was -4% and the Z score was 0.84. `CC(C)[C@H](C)NC(=O)c1cc(-c2ccc(C3CCCCC3)cc2)on1` was tested, and the “% Inhibition” value was -4% and the Z score was 0.61. In the case of `O=C(NCc1ccc(N2CCCC2)cc1)c1cc(F)c(O)c(Cl)c1`, the “% Inhibition” value is reported as 4% and the Z score is reported as -0.47. With `CCS(=O)(=O)CCN1C(=O)C2CC3CCCCC3N2C1=O` (centres undefined) the “% Inhibition” value was -7% and the Z score was 1.21. With `CN(CC(N)=O)S(=O)(=O)c1ccc(C#N)cc1` the “% Inhibition” value was 0% and the Z score was 0.07. In the case of `CC(C)=CCO[C@H]1COCC[C@@H]1NC(=O)c1c(C)nc2ncccn12`, the “% Inhibition” value is reported as -6% and the Z score is reported as 0.83. For `CCC[C@H]1CN(C(=O)CCc2c(C)nn(C)c2C)C[C@@H]1NS(C)(=O)=O`, the “% Inhibition” value was -11% and the Z score was 2.26. `Cc1cccc(NC(=O)c2nn[nH]c2NS(=O)(=O)c2ccccc2)c1` was tested, and the “% Inhibition” value was -11% and the Z score was 1.52. With `CCn1nc(C(=O)Nc2ccccc2)cc1-c1ccsc1` the “% Inhibition” value was -3% and the Z score was 0.62. With `CCc1nnsc1C(=O)NCc1ccco1` the “% Inhibition” value was -10% and the Z score was 1.61. In the case of `Cc1ccc(S(=O)(=O)Nc2cccc(Oc3ncccc3C(=O)NC(C)C)c2)cc1`, the “% Inhibition” value is reported as -11% and the Z score is reported as 1.69. `COc1cc(CN2CCN(C(=O)c3ccns3)CC2)cc(OC)c1` was tested, and the “% Inhibition” value was -12% and the Z score was 1.35. For `CCN(CC)c1ccc(C(=O)Nc2ccc3c(c2)OCCCO3)c(O)c1`, the “% Inhibition” value was 4% and the Z score was -0.58. For `CC(C)(CNC(=O)N1CCN(c2nccs2)CC1)N1CCOCC1`, the “% Inhibition” value was -3% and the Z score was 0.44. With `Cc1ncsc1C(=O)N(CC1CCN(C2Cc3ccccc3C2)CC1)C[C@H]1CCCO1` the “% Inhibition” value was -10% and the Z score was 1.11. For `COCCCN1C(=O)C2C(Cc3ccc(O)cc3)NC3(C(=O)Nc4ccccc43)C2C1=O` (centres undefined), the “% Inhibition” value was 4% and the Z score was -0.46. `CC[C@@H](C(=O)N(CC)c1cccc(C)c1)n1nc(-c2ccc(OC)cc2)c2c(C)onc2c1=O` was tested, and the “% Inhibition” value was 13% and the Z score was -1.27. With `COc1ccc(C)c2sc(N(Cc3ccccc3)C(=O)c3ccn(C)n3)nc12` the “% Inhibition” value was -10% and the Z score was 1.73. With `Cc1cc(NS(C)(=O)=O)cnc1N1CCCCC1` the “% Inhibition” value was -6% and the Z score was 0.87. In the case of `Cc1ccc(-c2nc(C)c(C)c(N3CCN(S(=O)(=O)c4ccc5ccccc5c4)CC3)n2)cc1`, the “% Inhibition” value is reported as -11% and the Z score is reported as 1.74. For `CN(C)c1cccc(-c2nc([C@H]3CCOC3)nn2CC(F)(F)F)c1`, the “% Inhibition” value was -14% and the Z score was 1.79. `Cn1ccnc(NCc2nnc3n2CCCCC3)c1=O` was tested, and the “% Inhibition” value was 6% and the Z score was -0.77. For `Cc1noc(C)c1S(=O)(=O)Nc1cccnc1-n1cccn1`, the “% Inhibition” value was 11% and the Z score was -1.24. For `O=C(Nc1c(F)cccc1F)N1C[C@H]2CC[C@H]1C2`, the “% Inhibition” value was -11% and the Z score was 2.18. `COc1ccc(NC(=O)c2nnc([C@H]3CCCN(C(=O)Nc4ccc(F)c(Cl)c4)C3)s2)cc1` was tested, and the “% Inhibition” value was -15% and the Z score was 2.26. For `COCCN(C)c1ccc(NCc2c[nH]nc2-c2cccnc2)nc1`, the “% Inhibition” value was -7% and the Z score was 0.88. `CCN(CC)C(=O)COc1cc(NCc2nc(C)no2)ccc1OC` was tested, and the “% Inhibition” value was -12% and the Z score was 1.67. `Cc1csc([C@@H](C#N)C(=O)c2cccc3cc[nH]c23)n1` was tested, and the “% Inhibition” value was -8% and the Z score was 1.64. `COc1ccc(NC(=O)c2cc(N3CCCCC3)c3cc(C)ccc3n2)cc1OC` was tested, and the “% Inhibition” value was -8% and the Z score was 0.91. With `CS(=O)(=O)NCCCNC(=O)c1cncc(Br)c1` the “% Inhibition” value was -6% and the Z score was 1. In the case of `CC(C)(F)c1nc(CS(=O)(=O)NC2CC2)no1`, the “% Inhibition” value is reported as 1% and the Z score is reported as -0.28.
